Results taken from PubChem BioAssay (NCATS).
Several values for one entry are separate records, joined by “and”; a condition that tells them apart may be missing. Identical values can stand only once. Inconclusive means that the source gave no clear call. Such entries were picked first, then a sample of the others. For part of these data: Potencies of inconclusive entries are doubtful fits and often do not repeat. Activity calls are given as the source filed them. Unless noted, calls follow the shape of the dose curve; as a rule, active = well fitted curve in the direction sought with a large enough effect; inconclusive = small, poorly fitted or top-dose-only effect, or another doubt; inactive = no such curve, though single readings can be large; an effect the other way counts as inactive or inconclusive.

Columns and labels:
[1] = qHTS of pediatric cancer cell lines to identify multiple opportunities for drug repurposing: Primary screen for TC32 cells (AID 1347089); also: potency is read from the fitted curve at half-maximal effect; nearly all actives have a fitted effect of over 60% in size
How it was run: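 qHTS, TC32, 48 h drug treatment, CellTiter-Glo luminescence as a proxy for metabolically active cells; primary top concentration 46 µM (MIPE 11-pt, NPC 8-pt); confirmatory 11-pt.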

[2] = qHTS of pediatric cancer cell lines to identify multiple opportunities for drug repurposing: Primary screen for NB-EBc1 cells (AID 1347095); also: potency is read from the fitted curve at half-maximal effect
How it was run: (§1)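 Plated cells (500-1,000 per well, growth media) were allowed to settle for 5 hours, treated with compound dilutions for 48 hours, then lysed with CellTiter-Glo for 15 min at room temperature before luminescence reading.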

[3] = qHTS of pediatric cancer cell lines to identify multiple opportunities for drug repurposing: Primary screen for NB1643 cells (AID 1347099); also: potency is read from the fitted curve at half-maximal effect; nearly all actives have a fitted effect of over 50% in size
How it was run: as §1

[4] = Quantitative High-Throughput drug screen in 47 multiple myeloma cell lines against the NCATS MIPE library collection: H1112_PLB cell viability assay (AID 1918967; also: potency is read from the fitted curve at half-maximal effect; nearly all actives have a fitted effect of over 30% in size)
How it was run: (§2)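 qHTS of the MIPE 4.0 collection: 500 myeloma cells/well, 48 h drug exposure at 37C in 5% CO2, then CellTiter-Glo for 5 min at room temperature before luminescence reading.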

[5] = Quantitative High-Throughput drug screen in 47 multiple myeloma cell lines against the NCATS MIPE library collection: MMM1_PLB cell viability assay (AID 1918976); also: potency is read from the fitted curve at half-maximal effect; nearly all actives have a fitted effect of over 35% in size
How it was run: (§3)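 ATP-based luminescence (CellTiter-Glo, 5 min RT incubation) quantified surviving cells following two days' treatment with MIPE 4.0 agents at 37 °C, 5% CO2.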

[6] = Quantitative High-Throughput drug screen in 47 multiple myeloma cell lines against the NCATS MIPE library collection: OCIMY7_PLB cell viability assay (AID 1918987); details: OCI-MY7 myeloma viability, CellTiter-Glo ATP, 48 h; viability (% of DMSO): at 45.8 µM (top of the series); also: nearly all actives have a fitted effect of over 65% in size; also: potency is read from the fitted curve at half-maximal effect
How it was run: as §3

[7] = Quantitative High-Throughput drug screen in 47 multiple myeloma cell lines against the NCATS MIPE library collection: OPM2_DSMZ cell viability assay (AID 1919872); also: nearly all actives have a fitted effect of over 30% in size; also: potency is read from the fitted curve at half-maximal effect
How it was run: as §2

[8] = Quantitative High-Throughput drug screen in 47 multiple myeloma cell lines against the NCATS MIPE library collection: KMS28BM_JCRB cell viability assay (AID 1919874); also: potency is read from the fitted curve at half-maximal effect; nearly all actives have a fitted effect of over 35% in size
How it was run: as §3

[9] = qHTS for identification of novel therapeutic agents for treatment of microphthalmiaassociated transcription factor (MiT) renal cell carcinoma (RCC) (AID 1963991; calls by dose curve; also: potency is read from the fitted curve at half-maximal effect); details: TFE3-RCC UOK109 viability, CellTiter-Glo, 48 h; active = Z-AUC below -0.8 in all three lines
How it was run: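 UOK109/UOK124/UOK145 (TFE3 fusions, three partners); 500 cells/well; MIPE v4.0, 1912 cpds, 11 conc.; 48 h, 37 C; CellTiter-Glo, 15 min RT; lum. Norm.: DMSO 100%, empty 0%.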

[10] = qHTS of pediatric cancer cell lines to identify multiple opportunities for drug repurposing: Primary screen for SJ-GBM2 cells (AID 1347091); also: potency is read from the fitted curve at half-maximal effect;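 as to activity change, negative = cytotoxic: plate controls were DMSO neutral control for no effect and bortezomib for full effect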
How it was run: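 Cell viability, CellTiter-Glo luminescence; 500-1,000 cells/well, 8- or 11-point titration, 48 h compound exposure at 37 degrees C, 5% CO2. Controls: DMSO neutral, bortezomib 2.3 µM final as positive.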

[11] = qHTS of pediatric cancer cell lines to identify multiple opportunities for drug repurposing: Primary screen for Saos-2 cells (AID 1347097); details: Saos-2 viability, CellTiter-Glo ATP luminescence, 48 h; activity change, negative = cytotoxic: at 46 µM (top of the series); also: potency is read from the fitted curve at half-maximal effect; nearly all actives have a fitted effect of over 40% in size
How it was run: as §1

[12] = Primary qHTS for inhibitors of nuclear receptor binding SET domain protein 2 (NSD2) in an isogenic RCH-ACV NSD2 p.E1099K mutant (9B) (AID 1645876); also: potency is read from the fitted curve at half-maximal effect; nearly all actives have a fitted effect of over 70% in size
[13] = qHTS of pediatric cancer cell lines to identify multiple opportunities for drug repurposing: Primary screen for SK-N-SH cells (AID 1347098); details: SK-N-SH viability, CellTiter-Glo luminescence, 48 h; activity change, negative = cytotoxic: at 57 µM (top of the series); also: potency is read from the fitted curve at half-maximal effect; nearly all actives have a fitted effect of over 65% in size
How it was run: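 Cells (500-1,000/well) rested 5 h, then received compounds for 48 h; metabolically active cells were measured by CellTiter-Glo luminescence. Final concentrations spanned up to 46 µM (MIPE, 11-point) or 0.59 nM-46 µM (NPC, 8-point) in primary screens, 11-point in follow-ups.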

[14] = qHTS of pediatric cancer cell lines to identify multiple opportunities for drug repurposing: Primary screen for MG 63 (6-TG R) cells (AID 1347105); details: MG 63 (6-TG R) viability, CellTiter-Glo, 48 h; activity change, negative = cytotoxic: at 46 µM (top of the series) unless noted; also: potency is read from the fitted curve at half-maximal effect; nearly all actives have a fitted effect of over 50% in size
How it was run: as §1

[15] = qHTS to identify inhibitors of the type 1 interferon - major histocompatibility complex class I in skeletal muscle: primary screen against the NCATS Mechanism Interrogation Plate v5.0 (MIPE) Libary (AID 1347411); details: iHSKM cells + IFN-b, HiBiT-tagged MHC-I luminescence, 24 h; activity change, negative = inhibition: at 45.8 µM (top of the series); also: potency is read from the fitted curve at half-maximal effect; nearly all actives have a fitted effect of over 65% in size
How it was run: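 HLA-B HiBit myoblasts, dexamethasone-free medium + 4 ng/ml IFN-b, 24 h compound, 11-pt 1:3 from 46 uM final. Readout: Nano-Glo HiBiT lytic luminescence after 10 min lysis, RT.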

[16] = Quantitative High-Throughput drug screen in 47 multiple myeloma cell lines against the NCATS MIPE library collection: KMS27_JCRB cell viability assay (AID 1918970); details: KMS27 myeloma cells, CellTiter-Glo ATP viability, 48 h; viability (% of DMSO): at 45.8 µM (top of the series);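 also: 100% = DMSO-only wells and 0% = media-only wells without cells; nearly all actives have a fitted effect of over 30% in size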
How it was run: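 ATP-based viability (CellTiter-Glo luminescence) is measured in cells treated 48 h with approved and investigational drugs at 37 °C. Controls are DMSO-only wells for full viability and media-only wells for none.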

[17] = Cytotoxicity counterscreen for NFkB agonists and antagonists (AID 624476); also: potency is read from the fitted curve at half-maximal effect
[18] = qHTS Assay for Identification of Small Molecule Antagonists for NFkB Signaling Pathway. (AID 624479; calls by dose curve;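 also: pathway stimulated with TNF alpha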; also: potency is read from the fitted curve at half-maximal effect; as to activity change, negative = inhibition: % is scaled to controls: 0 for no effect and ±100 for the full control effect)
[19] = qHTS of pediatric cancer cell lines to identify multiple opportunities for drug repurposing: Primary screen for control Hh wild type fibroblast cells (AID 1347106); also: potency is read from the fitted curve at half-maximal effect; nearly all actives have a fitted effect of over 55% in size
How it was run: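 Cells (500-1,000/well) in growth media were settled 5 h at 37 degrees C, then given compounds for 48 h. Viability was read as CellTiter-Glo luminescence. Primary runs used MIPE at 11 points (0.78 nM-46 µM) and NPC at 8 points (0.59 nM-46 µM); follow-ups used 11 points.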

MCC-26 = experiment: qHTS assay to identify novel small-molecules to repurpose for Merkel cell carcinoma treatment (AID 1296009); details: MCC and control cell lines, CellTiter-Glo viability, 72 h; series mostly up to 46 µM; also: potency is read from the fitted curve at half-maximal effect; nearly all actives have a fitted effect of over 60% in size
How it was run: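 Cell viability measured by CellTiter-Glo following 72 hr compound treatment at 37 degree celsius, with NPC and MIPE libraries tested in 8- and 11-point concentration series.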
Tags tell the direction and shape of the fitted curve.

Structure (SMILES): CN(C)CC(C)(C)CNc1nn2c(-c3ccccc3)nnc2cc1C1CCC1
- Potency [1]: active: 18.6 µM
- Potency [2]: active: 0.264 µM
- Potency [3]: active: 0.935 µM
- Potency [4]: inconclusive: 4.18 µM [cytotoxic, full curve]
- Potency [5]: inconclusive: 4.18 µM [cytotoxic, partial curve, poor fit]
- Potency [6]: inconclusive: 0.372 µM [cytotoxic, full curve, poor fit]
- Potency [7]: inactive
- Potency [8]: inconclusive: 33.2 µM [cytotoxic, single point]
- Potency [9]: inconclusive: 1.48 µM [falling, partial curve]

Structure (SMILES): O=C(CCCN1CCN(c2ccccn2)CC1)c1ccc(F)cc1
- Potency [10]: inactive
- Potency [11]: inconclusive: 33.5 µM [cytotoxic, partial curve, poor fit]

Structure (SMILES): CCOC(CN1CCN(CC(C)C(=O)c2ccccc2)CC1)c1ccccc1 (stereo not given)
- Potency [12]: inconclusive: 14600 nM [inhibitor, single point]

Structure (SMILES): Cc1cnc(-c2cnc(NCCNc3ccc(C#N)cn3)nc2-c2ccc(Cl)cc2Cl)[nH]1
- Potency [10]: inconclusive: 26.4 µM [cytotoxic, single point]
- Potency [2]: inconclusive: 37.2 µM [cytotoxic, single point]
- Potency [11]: inconclusive: 37.2 µM [cytotoxic, single point]
- Potency [13]: inconclusive: 0.171 µM [cytotoxic, full curve]
- Potency [3]: inconclusive: 4.18 µM [cytotoxic, partial curve, poor fit]
- Potency [14]: inconclusive: 4.69 µM [cytotoxic, full curve]
- Potency [15]: inconclusive: 26.2 µM [inhibitor, partial curve]
- Potency [4]: inconclusive: 8.33 µM [cytotoxic, partial curve]
- Potency [16]: inactive
- Potency [5]: inconclusive: 3.72 µM [rising, partial curve, poor fit]
- Potency [6]: active: 4.18 µM
- Potency [7]: inconclusive: 23.5 µM [cytotoxic, single point]
- Potency [8]: inconclusive: 33.2 µM [cytotoxic, single point]

Structure (SMILES): O=C(O)c1ccc(-c2c[nH]c3ccc(-c4ccccc4)cc23)cc1C1CCCC1
- Potency [17]: inconclusive: 23.5 µM [inhibitor, single point]

Structure (SMILES): Nc1ccn([C@@H]2O[C@H](CO)[C@@H](O)C2(F)F)c(=O)n1
- Potency [1]: active: 0.0118 µM
- Potency [13]: inconclusive: 0.097 µM [cytotoxic, full curve]

Structure (SMILES): CCOC(=O)C1=C[C@@]2(CC)CCCN3CCc4c(n1c1ccccc41)[C@H]32
- Potency [18]: inactive

Structure (SMILES): Nc1cc(C(F)(F)F)c(-c2cc(N3CCOCC3)nc(N3CCOCC3)n2)cn1
- Potency [13]: active: 0.482 µM
- Potency [3]: active: 0.296 µM
- Potency [14]: active: 0.187 µM
- Potency [19]: inconclusive: 4.69 µM [cytotoxic, full curve]
- Potency [15]: inconclusive: 2.62 µM [inhibitor, full curve]
- Potency [12]: active: 578 nM and active: 1.18 µM
- Potency [6]: active: 0.59 µM
- Potency [9]: active: 0.662 µM
- Potency (MCC-26): active: 2.35 µM

Structure (SMILES): COC(=O)[C@]12CCC(C)(C)C[C@@H]1[C@@H]1C(=O)C=C3[C@@]4(C)C=C(C#N)C(=O)C(C)(C)[C@@H]4CC[C@@]3(C)[C@]1(C)CC2
- Potency [18]: active: 0.595 µM
- Potency [1]: inconclusive: 2.62 µM [cytotoxic, partial curve, poor fit]
- Potency [10]: active: 0.235 µM
- Potency [2]: active: 0.264 µM
- Potency [19]: active: 5.9 µM
- Potency [5]: active: 1.32 µM
- viability (% of DMSO) [6]: inconclusive: 4.01% [cytotoxic]
- Potency [9]: active: 1.18 µM

Structure (SMILES): COc1cc(O)c2c(c1)C1OC1C[C@H](O)[C@H](O)C(=O)C=CC[C@H](C)OC2=O (stereo not given in full)
- Potency [1]: inconclusive: 29.4 µM [cytotoxic, single point]
- Potency [2]: active: 5.9 µM
- Potency [19]: inconclusive: 9.35 µM [cytotoxic, partial curve]
- Potency [15]: active: 13.1 µM
- Potency [8]: active: 3.72 µM
- Potency [9]: inconclusive: 14.8 µM [falling, partial curve]

Structure (SMILES): CO[C@@H]1[C@@H](OC)[C@H](C)[C@@](O)(CC(=O)O)O[C@H]1[C@H](C)[C@H]1O[C@@]2(CC[C@@](C)([C@H]3CC[C@@](C)([C@@H]4O[C@@H]([C@H]5O[C@](C)(O)[C@H](C)C[C@@H]5C)C[C@@H]4OC4C[C@H](OC)[C@@H](OC)[C@H](C)O4)O3)O2)C[C@H](O)[C@H]1C (stereo not given in full)
- Potency [10]: inconclusive: 0.211 µM [cytotoxic, full curve]
- Potency [2]: active: 0.266 µM
- Potency [3]: active: 0.841 µM
- Potency [14]: inconclusive: 10.6 µM [cytotoxic, partial curve]
- Potency [19]: inconclusive: 11.9 µM [cytotoxic, partial curve, poor fit]
- Potency [12]: active: 596 nM
- Potency (MCC-26): inconclusive: 4.73 µM [inhibitor, partial curve]

Structure (SMILES): CC(Oc1cc(-n2cnc3ccc(CN4CCN(C)CC4)cc32)sc1C(N)=O)c1ccccc1C(F)(F)F (stereo not given)
- Potency [12]: active: 578 nM
